The inconclusive results got no clear call from the source; some entries with a clear call stand among them for comparison. A potency beside an inconclusive call is a rough fit, not a confirmed value. Where a structure was tested more than once in an assay, its records may differ in their call. Active and inactive are the calls of the source. Unless noted, calls come from the whole dose curve; as a rule, active = well fitted curve in the direction sought with a large enough effect; inconclusive = small, poorly fitted or top-dose-only effect, or another doubt; inactive = no such curve, though single readings can be large; an effect the other way counts as inactive or inconclusive.
molecular target: Estrogen receptor (Homo sapiens) (UniProt P03372); test: qHTS assay to identify small molecule antagonists of the estrogen receptor alpha (ER-alpha) signaling pathway using the BG1 cell line in the presence of 0.1 nM 17-beta-estradiol (AID 1259244; active = well fitted curve in the direction sought with a large enough effect in the repeat runs; inconclusive = weak or mixed curves; inactive = no such curve, though single readings can be large; an effect the other way counts as inactive or inconclusive; note: nearly all actives have a fitted effect of over 50% in size); conditions: VM7Luc4E2 (BG1) ERE-luciferase, antagonist mode, 0.1 nM E2, 22 h; series mostly up to 92.4 µM; activity change, negative = inhibition: at the top concentration
UniProt P03372, sequence (P03372 whole entry, looked up): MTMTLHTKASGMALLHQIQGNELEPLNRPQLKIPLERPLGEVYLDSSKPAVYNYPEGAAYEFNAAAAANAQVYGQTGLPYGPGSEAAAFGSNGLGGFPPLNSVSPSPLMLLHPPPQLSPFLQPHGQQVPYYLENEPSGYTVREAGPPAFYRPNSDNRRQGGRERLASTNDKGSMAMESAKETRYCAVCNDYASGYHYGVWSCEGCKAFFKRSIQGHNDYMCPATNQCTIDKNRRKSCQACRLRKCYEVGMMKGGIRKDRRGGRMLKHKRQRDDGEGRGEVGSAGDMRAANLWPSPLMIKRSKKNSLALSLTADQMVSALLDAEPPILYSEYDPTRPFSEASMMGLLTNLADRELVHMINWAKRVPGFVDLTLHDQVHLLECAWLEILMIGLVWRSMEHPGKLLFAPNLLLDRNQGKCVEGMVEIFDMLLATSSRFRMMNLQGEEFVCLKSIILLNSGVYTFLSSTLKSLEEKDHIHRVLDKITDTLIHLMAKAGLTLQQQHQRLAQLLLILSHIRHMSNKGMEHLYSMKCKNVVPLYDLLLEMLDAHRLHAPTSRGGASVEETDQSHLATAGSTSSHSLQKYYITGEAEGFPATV
Method in brief: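 Luciferase signal from VM7Luc4E2 ERE-reporter cells, co-dosed with test compound and 0.1 nM final 17beta-estradiol for 22 h, read with ONE-Glo.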
Potency is the fitted concentration of half-maximal effect; tags give direction and shape of the fitted curve.

Row | Structure (SMILES) | Potency
1 | CCN(CC)c1c([N+](=O)[O-])cc(C(F)(F)F)c(N)c1[N+](=O)[O-] | inconclusive: 34.4 µM [inhibitor, partial curve]
2 | CCC(=O)C(CC(C)N(C)C)(c1ccccc1)c1ccccc1 (configuration not stated) | inconclusive: 54.7 µM [inhibitor, single point]
3 | COP(=S)(OC)Oc1ccc(Sc2ccc(OP(=S)(OC)OC)cc2)cc1 | active: 61.1 µM

test system: not listed separately; test: qHTS assay to identify small molecule phospholipidosis (PLD) inducers (AID 1259344); conditions: HepG2 phospholipidosis, LipidTOX Red imaging, 24 h; series mostly up to 38.3 µM; PLD induction: at the top concentration; for PLD induction: % is set by controls: 0 for no effect and ±100 for the full control effect
Method in brief: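 Image-based: LipidTOX Red pit count/intensity per well and per cell; HepG2, 24 h compound at 37 C, PFA fixation, Hoechst counterstain.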

Row | Structure (SMILES) | Potency | PLD induction
4 | O=S(=O)(O)C(F)(F)C(F)(F)C(F)(F)C(F)(F)F | inconclusive: 11.2 µM [activator, single point] | 
5 | COP(=S)(OC)Oc1ccc(Sc2ccc(OP(=S)(OC)OC)cc2)cc1 |  | inactive: -0.451%
6 | C[C@]12CCC(=O)C=C1CC[C@@H]1[C@@H]2CC[C@@]2(C)[C@H]1CC[C@]2(C)O | inconclusive: 28.2 µM [activator, single point] | 
7 | CN1C[C@H](CNC(=O)OCc2ccccc2)C[C@@H]2c3cccc4c3c(cn4C)C[C@H]21 | inconclusive: 10 µM [activator, partial curve] | 

— PubChem BioAssay (Tox21)
